Here are results for 57 sequences from the supplement of paper PMC11417369.

The other results are listed elsewhere or left out.

This assay concerns PfAP2-HC AP2 domain (GST-tagged). The experiment in a line: gcPBM binding intensity (ln(normalized median fluorescence intensity)); higher = stronger DNA binding. A digest of the protocol: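 In this array assay, P. falciparum DNA-binding domains with a GST tag, expressed in E. coli, were applied for 1 h to primer-extended double-stranded 36-bp intergenic genomic probes and negative controls on an Agilent 4 × 180k array. Bound protein was visualised with Alexa488 anti-GST antibody at 488 nm. Binding intensity is the highest Masliner-normalised natural-log median intensity across replicate spots of either probe orientation.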
As for “TATATATATATAATGTGTACACAAATATATATTATA [XGTACX_site8786]”, the “gcPBM binding intensity (ln)” value worked out at 9.65.
The figure for “AAATTTATATAATATTGTACATTAAAAATTATATAT [XGTACX_site8009]” is 9.42; for “AGTATATATACACAAGGGGAATACATATACAAAATT [TGCATGCA_negctrl_site244]” it is 9.81; for “TGGGTAATACATAATACACACATGTATATGTCGCAT [CACACA_site1125]” it is 9.93.
The same measure for “TTTTTAAAAAAGATAAGCGAAAGAATTAATTTTTAA [GTGCAC_negctrl_site197]”: 9.35; for “TATGTATAAATATATGCACACATATATATATTTATA [CACACA_site9150]”: 9.72; for “TGTTTATTTATTTGTGTGCACTCAGATTATATTATA [GTGCAC_site9510]”: 10.1.
The figure for “AAATCGTGCACGGACACATGCAGTAGCCGAGAATTA [TGCATGCA_site733]” is 9.63; for “TATTTTAATTTTTGTTGTACGCAAATGTGAGGGCAT [XGTACX_site4663]” it is 9.38; for “TAAACCAAAAAAAGTAGTACAAATATTATAAAAAAA [XGTACX_site8497]” it is 9.74.
Regarding “GATGTATTCATACATGCACACGTACATATTTAAATA [CACACA_site9299]”, the “gcPBM binding intensity (ln)” value was 9.79.
The figure for “GTTCATAAATTAAACACACACACACGGCTGGATACC [CACACA_site7545]” is 10.4.
As for “AGGTAGAAAAAAGACACACACATTAGATATTTATAT [CACACA_site6313]”, the “gcPBM binding intensity (ln)” value is 10.6.
The figure for “GTAAAACAGATTTACAGTACACATGTGTTATGTTTT [XGTACX_site2933]” is 9.79; for “TTTTTATATTTTATTATTTTTTTTATATAAAAAATT [CACACA_negctrl_site601]” it is 9.63.
The figure for “ATAAAAATATTTGAATGTACTTATAAGATATATATA [XGTACX_site4257]” is 9.55; for “TTTATATATAAATAATGTACAAAAAATTTTAAAAAG [XGTACX_site7990]” it is 9.55.
The figure for “CTTTATTTTTTATACACACACAATATGTATTTATAT [CACACA_site5879]” is 10.2; for “TCTATTTTTTATATGGTGCATTGTTCTTATTAATAT [GTGCAC_site9392]” it is 9.77; for “AGGAAAAATAATTATTCACACAATAAATATATTTGA [CACACA_site5824]” it is 9.58.
For the sequence “AATTAATTTATGTTACGTACATAAGTATTATATTTT [XGTACX_site388]”, the “gcPBM binding intensity (ln)” value is 9.68.
The figure for “GTTCAAATTATTATGTGTACTAAAGAATATTTTAAA [XGTACX_site3166]” is 9.22; for “TAAATACATCTATGCACACAAAAAAATATATATTTT [CACACA_site5027]” it is 9.83.
The figure for “TGTATAAACTTTACGTGTACATGAATAATCTATAAT [XGTACX_site3801]” is 9.54; for “AAAATGGAACTAGGAATAATATAAGAAGATAAAAGG [XGTACX_negctrl_site347]” it is 9.7; for “TTGTACAAAAATAATGCACACTATATCAAGTTTTTT [CACACA_site5898]” it is 9.64.
The figure for “TTTATAAATTCTCTTTTTAAAAAATATTTTTATACT [CACACA_negctrl_site427]” is 9.48; for AAAATAATTTTATAAGTGCAAAATAGCTTATTTATA it is 9.48; for “TAATCATTTTAGCTTACACACAAAATTTTGTTATAA [CACACA_site2939]” it is 9.75.
For the sequence “TATATATGTGTATAGAGTACACGTTTTTTTTAATAT [XGTACX_site3128]”, the “gcPBM binding intensity (ln)” value was 9.6.
The same measure for “AAAAACCTGAACTGTGCATGTCATACTTTTACTTTT [TGCATGCA_site73]”: 9.87.
Turning to TATACGTATTACAGAGTGCAATAAACAGTATATATT, the “gcPBM binding intensity (ln)” value was determined as 9.8.
Regarding “TTTATTAAAATATTCTCACACACCAAAATATGTATG [CACACA_site932]”, the “gcPBM binding intensity (ln)” value was 9.97.
On to “ATAAAATAACACAACGTTGACAAATTTGGATGACTC [XGTACX_negctrl_site324]”, for which the “gcPBM binding intensity (ln)” value was determined as 10.1.
For the sequence “ATATATGTAGATATATGTACATATATAGGTAGATAT [XGTACX_site7589]”, the “gcPBM binding intensity (ln)” value is 10.2.
The figure for “AAGGAAAAGTAAAGAAGTACTGTACCGCCAAAAAAA [XGTACX_site2607]” is 9.7.
On to “AATTTATTTTTTTGATGTACATACAATTTATCACAA [XGTACX_site5936]”, for which the “gcPBM binding intensity (ln)” value came to 9.71.
The figure for “TTGATGTTGGTAGGATGTACGGTACCGGTAGTATTT [XGTACX_site6642]” is 9.68; for “AAAATAATAAAAAGGGGTACAAAGAAACAAATATAA [XGTACX_site296]” it is 9.82; for “TATGTGCATATAAACTCACACATTGTATATTACATG [CACACA_site6106]” it is 9.75.
Regarding “ATTTTAGAATTTAATACACACAAAAAAAAAAAATTA [CACACA_site3704]”, the “gcPBM binding intensity (ln)” value was 9.66.
The same measure for “TATTACATTATATAAACATGCAAAACTATATATTAT [TGCATGCA_site601]”: 9.61; for “AAAAATTTATTTAAAAGTACATAAAATAAAGGTGGA [XGTACX_site7591]”: 9.7.
Consider ACTTTAGAAATAGAGGTGCTATTTTTATTACCACAC, for which the “gcPBM binding intensity (ln)” value is 9.71.
The same measure for “TGCACAAAGTTATGCACACACCTAAAATTAATTTTT [CACACA_site7385]”: 9.87.
The same measure for “TATACACATATATACACACACATATATAAATAAATA [CACACA_site7579]”: 10.2; for “TTATAATATGTATACACACACATATATAGATATATA [CACACA_site7159]”: 9.87; for “ATTCTTTATATGCATACACACCTAATATAGGGACCT [CACACA_site6830]”: 9.71.
The figure for “GTACATAGGTATAGCACACACAAATGTAGGTATTTT [CACACA_site4049]” is 10.1.
“AAATGTAATATAAATAGTACATATTAAATAAAATTA [XGTACX_site6917]”: the “gcPBM binding intensity (ln)” value turned out to be 9.75.
The same measure for “ATGTGCACATATAAAAGTACACGCACATATATATAT [XGTACX_site1238]”: 9.81; for “AAGAATATTATAAACACACACTTTATAAAGAATTAT [CACACA_site4241]”: 10.1; for “TATATAATTGTCTTCACACACACATATATATATATA [CACACA_site2744]”: 10.2.
The same measure for “TATTTTATTTGTATATTCATTTGTATAATATAAATA [TGCATGCA_negctrl_site267]”: 9.52.
Take “AAAAAAAAAAAAAAAACACACATAAAAATATAATAA [CACACA_site3855]”: the “gcPBM binding intensity (ln)” value stood at 9.9.
Consider ATTATATATAATATAGTGCATGTAAAAAATAAAACA, for which the “gcPBM binding intensity (ln)” value was 9.95.
The figure for “AAAAATAAATTTATATATTACAAGAACAAATATAGT [XGTACX_negctrl_site567]” is 9.73.
